Results from publication PMC10652611 (Cell & Bioscience, 2023).
Results are given in words; binding and its absence hold for the method and conditions named. Binding seen in cells or lysates may run through a third protein. Some results given as binding are weak or reduced against the parent protein; the word gives no strength. For some of these results: Sequences can lack the tags named with a protein. Values belong to the molecule of their own block, whether it stands above or below them.

Sequences of proteins named here, by UniProt entry; tags and fusion partners are left off.
UniProt P25103: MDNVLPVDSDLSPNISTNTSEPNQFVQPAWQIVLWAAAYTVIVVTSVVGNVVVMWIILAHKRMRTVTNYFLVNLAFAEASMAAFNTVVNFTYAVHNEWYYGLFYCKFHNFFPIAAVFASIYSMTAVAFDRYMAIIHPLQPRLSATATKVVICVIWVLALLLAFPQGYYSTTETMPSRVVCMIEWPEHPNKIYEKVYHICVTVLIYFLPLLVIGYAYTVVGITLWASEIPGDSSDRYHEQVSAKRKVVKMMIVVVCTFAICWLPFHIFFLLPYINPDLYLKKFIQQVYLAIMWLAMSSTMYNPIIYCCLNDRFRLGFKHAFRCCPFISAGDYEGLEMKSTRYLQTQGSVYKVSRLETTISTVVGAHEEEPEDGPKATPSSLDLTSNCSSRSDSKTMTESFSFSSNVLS
UniProt P49407: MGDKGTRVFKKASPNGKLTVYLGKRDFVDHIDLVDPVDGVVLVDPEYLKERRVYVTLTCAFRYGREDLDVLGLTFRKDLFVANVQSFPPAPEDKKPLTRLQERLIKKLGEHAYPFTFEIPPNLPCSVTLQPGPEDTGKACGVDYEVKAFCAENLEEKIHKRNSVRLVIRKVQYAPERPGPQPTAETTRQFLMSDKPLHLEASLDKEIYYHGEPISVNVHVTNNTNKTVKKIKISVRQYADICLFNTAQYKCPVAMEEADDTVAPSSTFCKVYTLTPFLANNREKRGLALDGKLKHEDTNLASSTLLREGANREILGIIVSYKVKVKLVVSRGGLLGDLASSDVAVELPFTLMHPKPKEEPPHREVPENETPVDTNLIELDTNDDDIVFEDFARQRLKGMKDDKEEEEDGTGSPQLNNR

Columns and labels:
[1] = biological target: Neurokinin-1 receptor, C-terminal SmBiT- or LgBiT-tagged (UniProt P25103); assay: split reporter; NanoBiT; HEK293 cells co-expressing C-terminal SmBiT- and LgBiT-tagged NKs, 50 ng of each plasmid, luminescence in Opti-MEM at room temperature, compared with vector
[2] = biological target: T1, Neurokinin-3 receptor, FLAG- or HA-tagged (UniProt P29371); assay: co-IP; HEK293 cells co-expressing FLAG- and HA-tagged receptors; lysis in 150 mM NaCl, 50 mM Tris-HCl pH 7.5, 10 mM KCl, 1% Triton-X100, 10 mM NaF; anti-FLAG agarose 2 h at 4 °C; precipitates on SDS-PAGE without boiling; blot with anti-HA
T1 sequence: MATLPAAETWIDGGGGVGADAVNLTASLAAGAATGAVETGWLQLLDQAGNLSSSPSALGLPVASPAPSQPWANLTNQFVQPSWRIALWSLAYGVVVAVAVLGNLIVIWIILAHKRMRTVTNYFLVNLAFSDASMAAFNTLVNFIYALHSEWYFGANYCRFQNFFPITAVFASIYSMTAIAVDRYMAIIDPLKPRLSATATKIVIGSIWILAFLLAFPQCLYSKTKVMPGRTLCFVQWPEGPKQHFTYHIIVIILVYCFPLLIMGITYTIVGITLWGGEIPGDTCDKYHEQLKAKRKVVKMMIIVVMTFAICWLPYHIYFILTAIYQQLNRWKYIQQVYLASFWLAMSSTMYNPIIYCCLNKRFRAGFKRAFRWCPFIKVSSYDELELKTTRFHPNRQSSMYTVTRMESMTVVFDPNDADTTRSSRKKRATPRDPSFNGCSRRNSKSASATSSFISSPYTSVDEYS

[3] = biological target: Neurokinin-1 receptor, FLAG- or HA-tagged (UniProt P25103); assay: as above
[4] = biological target: Neurokinin-1 receptor, C-terminal SmBiT- or LgBiT-tagged (UniProt P25103); assay: split reporter; NanoBiT; HEK293 cells expressing NK1-SmBiT and β-arrestin1-LgBiT, pretreated with 1 μM aprepitant for 30 min, then 1 μM SP or 10 nM NKA
[5] = biological target: Neurokinin-1 receptor, C-terminal SmBiT- or LgBiT-tagged (UniProt P25103); assay: split reporter; NanoBiT; HEK293 cells expressing a NanoBiT-tagged NK and NanoBiT-tagged β-arrestin1, stimulated with SP, NKA or NKB, luminescence in real time; in some experiments with untagged NK1 or NK2 co-expressed
[6] = biological target: Neurokinin-2 receptor, C-terminal SmBiT- or LgBiT-tagged (UniProt P21452); assay: as above
[7] = biological target: Neurokinin-2 receptor, C-terminal SmBiT- or LgBiT-tagged (UniProt P21452); assay: split reporter; NanoBiT; HEK293 cells co-expressing C-terminal SmBiT- and LgBiT-tagged NKs, 50 ng of each plasmid, luminescence in Opti-MEM at room temperature, compared with vector

binding [1]: binds
Molecule: Neurokinin-1 receptor, C-terminal SmBiT- or LgBiT-tagged (from UniProt P25103 1-407)

binding [2]: no binding
Molecule: Neurokinin-1 receptor, FLAG- or HA-tagged (from UniProt P25103 1-407)

binding [3]: binds
binding [2]: no binding
Molecule: Neurokinin-2 receptor, FLAG- or HA-tagged (from UniProt P21452 1-398)

binding [5]: binds
Molecule: β-arrestin1-LgBiT (from UniProt P49407 1-418)
binding [4]: no binding (condition: with 1 μM aprepitant)

binding [6]: binds
Molecule: β-arrestin1-SmBiT (from UniProt P49407 1-418)

binding [2]: binds
B1: Neurokinin-3 receptor, FLAG- or HA-tagged (receptor, UniProt P29371 1-465)
chain: T1 sequence

binding [1]: binds
binding [7]: binds
B2: Neurokinin-2 receptor, C-terminal SmBiT- or LgBiT-tagged (receptor, UniProt P21452 1-398, looked up)
chain: MGTCDIVTEANISSGPESNTTGITAFSMPSWQLALWATAYLALVLVAVTGNAIVIWIILAHRRMRTVTNYFIVNLALADLCMAAFNAAFNFVYASHNIWYFGRAFCYFQNLFPITAMFVSIYSMTAIAADRYMAIVHPFQPRLSAPSTKAVIAGIWLVALALASPQCFYSTVTMDQGATKCVVAWPEDSGGKTLLLYHLVVIALIYFLPLAVMFVAYSVIGLTLWRRAVPGHQAHGANLRHLQAMKKFVKTMVLVVLTFAICWLPYHLYFILGSFQEDIYCHKFIQQVYLALFWLAMSSTMYNPIIYCCLNHRFRSGFRLAFRCCPWVTPTKEDKLELTPTTSLSTRVNRCHTKETLFMAGDTAPSEATSGEAGRPQDGSGLWFGYGLLAPTKTHVEI
